In publication PMC6919601, “Identification of Plasmodium dipeptidyl aminopeptidase allosteric inhibitors by high throughput screening” (PLoS ONE, 2019):
Several values for one entry are separate records, joined by “and”; a condition that tells them apart may be missing. Identical values can stand only once. In all, about 110,000 compounds went through this assay and about 230 (0.21%) showed an effect of 50% or more. Some of the results follow.

target: DPAP1 (Plasmodium falciparum, UniProt Q8IIJ9); assay: primary screen, percent inhibition; read by cleavage of a fluorogenic dipeptide substrate; higher = more effect of the substance; design: species or system P. falciparum D10 trophozoite lysates; single well
Sequence (Q8IIJ9 whole entry, looked up): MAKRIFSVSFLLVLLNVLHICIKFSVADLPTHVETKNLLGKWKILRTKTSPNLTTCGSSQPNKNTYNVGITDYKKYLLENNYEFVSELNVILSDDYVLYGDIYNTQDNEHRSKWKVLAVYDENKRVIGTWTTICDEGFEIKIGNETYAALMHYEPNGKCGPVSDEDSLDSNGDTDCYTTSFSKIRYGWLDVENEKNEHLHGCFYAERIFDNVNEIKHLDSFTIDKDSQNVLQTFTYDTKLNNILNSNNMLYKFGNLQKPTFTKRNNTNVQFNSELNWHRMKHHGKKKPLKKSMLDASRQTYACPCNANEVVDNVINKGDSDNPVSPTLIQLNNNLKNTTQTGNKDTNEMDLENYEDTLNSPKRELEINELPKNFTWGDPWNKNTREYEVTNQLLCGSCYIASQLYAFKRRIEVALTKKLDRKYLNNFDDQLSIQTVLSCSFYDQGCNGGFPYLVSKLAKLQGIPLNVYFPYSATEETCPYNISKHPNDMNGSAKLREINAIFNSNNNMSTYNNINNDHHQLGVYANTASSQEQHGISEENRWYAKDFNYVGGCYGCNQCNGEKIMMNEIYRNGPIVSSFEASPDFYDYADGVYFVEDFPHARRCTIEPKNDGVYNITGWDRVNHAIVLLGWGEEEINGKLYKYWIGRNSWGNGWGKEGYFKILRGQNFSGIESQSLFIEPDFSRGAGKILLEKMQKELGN
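Note: 30 min substrate incubation versus DMSO and 10 µM JCP410 controls.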

Row | Structure (SMILES) | % Inhibition @ 10 uM
1 | Oc1cccc(/C=N/c2cccc(Br)c2)c1 | 1.08%
2 | Cn1cccc1Cc1nnc(SCC(=O)NCCc2ccccc2)n1-c1ccc(F)cc1 | -3.95%
3 | CCOc1ccc2nc(N3CCCC(C(=O)NCCCN(C)C4CCCCC4)C3)sc2c1 (centres unmarked) | -1.8%
4 | CC(C)OC(=O)Nc1ccc2c(c1)N(C(=O)CCN1CCOCC1)c1ccccc1CC2 | -8.03%
5 | CC(NC(=O)Cn1c(=O)c2cccn2c2cccnc21)c1ccc2c(c1)OCCO2 (centres unmarked) | 1.53%
6 | O=C1C2CC=CCC2C(=O)N1c1ccc(Cc2ccncc2)cc1 (centres unmarked) | -19.8%
7 | COc1cc(CN2CCSCC2)cc(Br)c1O | -0.127%
8 | O=C(CNC(=O)c1ccccc1)NC1(C(=O)NC2CCCC2)CCCCC1 | -0.795%
9 | c1ccc(Oc2ccc3ccccc3n2)cc1 | 2.59%
10 | CC(C)c1ccc(N(CC(=O)Nc2ccc(Br)cc2)S(C)(=O)=O)cc1 | 0.793%
11 | COc1ccc(Cl)cc1C(=O)NCc1cnn(C)c1C | -5.34%
12 | O=C(/C=C/c1ccccc1)NC1CC1 | 2.8%
13 | CC(C)(c1ccccc1)c1ccc(OCC(=O)Nc2nccs2)cc1 | -6.6%
14 | COc1ccc(Br)cc1CNC(=O)c1ccc(-n2cnc3cccnc32)cc1 | 1.48%
15 | CCOC(=O)N1CCC(NCCCOC)CC1 | -0.414%
16 | COc1cc(/C=C2/OC(c3ccc(F)cc3)=NC2=O)cc(OC)c1OC | -1.33%
17 | CS(=O)(=O)c1ccc2nc(NC(=O)c3cc4ccccc4o3)sc2c1 | -1.47%
18 | O=S(=O)(Cc1ccccc1)NCC1CCCO1 (centres unmarked) | -8.99%
19 | COc1cc(C)c(-n2cnnn2)cc1C(C)C | 8.27%
20 | CC(=O)CC1(O)C(=O)N(CN2CCOCC2)c2ccccc21 (centres unmarked) | -4.08%
21 | CC(C)/C=C(/C(=O)c1ccc(Cl)cc1Cl)n1cncn1 | -1.71%
22 | CCc1cc2c(C)cc(=O)oc2c2c1OCC2=O | -3.51%
23 | COc1ccc(-c2cc(C(=O)N3CCN(C(=O)c4ccco4)CC3)[nH]n2)cc1 | -3.1%
24 | CC1=C(C#N)C(Nc2cc(C)ccn2)(C(F)(F)F)C(=O)N1 (centres unmarked) | 6.64%
25 | CCC1CCCCN1CCCNc1ncnc2onc(C)c12 (centres unmarked) | -5.36%
26 | CC1=CSC2=NC(=O)/C(=C\c3cccn3-c3ccccc3)C(=N)N12 | 1.9%

Row | Structure (SMILES) | % Inhibition @ 10 uM
27 | Cc1c(C(=O)C(F)(F)F)c2ccccc2n1CC(=O)N1CCCCCC1 | -0.169%
28 | CCCn1c2ccccc2c2cnn(CC(=O)Nc3cc(C)on3)c(=O)c21 | 2.82%
29 | Cc1ccc(CCNC(=O)c2cc(S(=O)(=O)N3CCCCC3)c[nH]2)cc1 | -4.37%
30 | CCS(=O)(=O)c1c(S(=O)(=O)CC)c2ccc(C(C)=O)cn2c1C(=O)c1ccc(C)cc1C | 5.24%
31 | CC(C)C(=O)n1nc(-c2cccnc2)nc1NCc1ccc(F)cc1 | 2.21%
32 | CCN1CCN(CCNC(=O)CCN2N=C(c3ccc(OC)cc3)CCC2=O)CC1 | -6.4%
33 | CC(=O)c1ccc(NC(=O)c2ccc(C(F)(F)F)cc2)cc1 | -8.73%
34 | O=C(NCC1CCCO1)c1cccc(NC(=O)c2ccccc2)c1 (centres unmarked) | -3.33%
35 | CCc1ccc(C(=O)NC2=NC(=O)CC(c3ccc(OC)c(OC)c3OC)N2)cc1 (centres unmarked) | -0.601%
36 | O=C(CN1C(=O)S/C(=C/c2cccs2)C1=O)Nc1ccccc1 | -1.22%
37 | Cc1ccc(C)c(S(=O)(=O)c2nnn3c2nc(NCc2ccc(F)cc2)c2sccc23)c1 | -4.34%
38 | CCn1nc(C)c2c(C(F)(F)C(F)(F)F)cc(=O)n(CC(=O)NCc3ccc(OC)cc3)c21 | -0.434%
39 | COc1ccc(S(=O)(=O)NCc2ccc(C(=O)NCCN(CC(C)C)CC(C)C)cc2)cc1 | -1.54%
40 | CS(=O)(=O)N1CCC(C(=O)Nc2c(F)cccc2F)CC1 | -13.4%
41 | CCN(CC)C(=O)C1CCCN(Cc2ccc(Cl)cc2Cl)C1 (centres unmarked) | -5.68%
42 | Cc1c(C(=O)NCCC2=CCCCC2)oc2ccc(S(=O)(=O)N3CCC4(CC3)OCCO4)cc12 | -2.49%
43 | Cc1ccc(S(=O)(=O)N(C)c2ccc(C(=O)NCC3CCCO3)cc2)cc1 (centres unmarked) | -2.21%
44 | CCCCOC(=O)Nc1ccc(S(=O)(=O)Nc2nc(C)cc(C)n2)cc1 | 3.86%
45 | COCCNC(=O)CCCn1sc2ccccc2c1=O | -2.84%
46 | CC(C)CC(NC(=O)/C=C/c1cccnc1)C(=O)NCC#N (centres unmarked) | 5.05%
47 | CN1CCN(CCCNC(=O)c2sc3ccccc3c2Cl)CC1 | -2.42%
48 | CC1(c2ccncc2)NC(=O)NC1=O (centres unmarked) | -2.03%
49 | Cc1cc(OCC(=O)N2CCCCC2)ccc1Br | -2.36%
50 | O=C(NCCCCNC(=O)c1cccc(Cl)c1)c1cccc(Cl)c1 | -3.45%
51 | CCc1ccccc1S(=O)(=O)Cc1ccc(C(=O)NCc2cccs2)o1 | -1.51%
52 | CC[C@H](NC(=O)[C@H](CC(C)C)NC(=O)OCc1ccccc1)C(=O)CS(=O)(=O)c1ccccc1 | 8.71%

Row | Structure (SMILES) | % Inhibition @ 10 uM
53 | COCCCNC(=O)NC(C)c1c(-n2cccc2)sc(C)c1C (centres unmarked) | -3.34%
54 | CCCO/C(O)=C1\C(C)=NC2=C(C(=O)CCC2)C1c1cccc(F)c1 (centres unmarked) | -2.87%
55 | COc1cc(C2=N/C(=C3/OC(=O)c4ccccc43)C(=O)O2)cc(OC)c1OC | 4.54%
56 | COc1ccc(Cl)cc1NS(=O)(=O)c1ccc(F)cc1 | 2.41%
57 | CCOc1ccc(CC/N=c2/c(-c3ccccc3)c(O)c2=O)cc1OCC | -0.86%
58 | Cc1ccc(Nc2nc(-c3ccc(S(=O)(=O)N4CCOCC4)cc3)cs2)cc1Cl | -0.693% and 0.219%
59 | O=C(O)c1ccc(Oc2ccc([N+](=O)[O-])cc2)cc1 | 3.16%
60 | O=C(O)C(Cc1ccccc1)N1C(=O)c2cccc3cccc(c23)C1=O (centres unmarked) | 0.823%
61 | CCC(C)NC(=O)c1ccc(-c2nc(CS(=O)c3ccccc3)c(C)o2)cc1 (centres unmarked) | 3.14%
62 | O=C1NC(=O)/C(=C/c2cc3ccccc3[nH]2)N1 | 2.78%
63 | CC(C)c1ccc(CN(C(=O)COc2ccccc2Cl)C2CCS(=O)(=O)C2)cc1 (centres unmarked) | 0.413%
64 | O=C(NCc1ccco1)c1c2c(nc3ccccc13)C(=O)N(C1CCCCC1)C2 | -7.5%
65 | CCCn1c(NCc2ccc(C)o2)nc2ccccc21 | 1.64%
66 | Fc1ccc(N2CCN(Cc3ccc(Br)cc3)CC2)cc1 | 4.67%
67 | O=c1c2c3c(sc2nc2c4ccccc4c(N4CCOCC4)nn12)CCCCC3 | 4.49%
68 | CCCCN(C)CCCNC(=O)C1CCN(C(=O)c2cc3sccc3n2C)CC1 | -3.35%
69 | COc1ccc(C(=O)Nc2cc3ccc(O)cc3oc2=O)cc1 | 1.72%
70 | CCOC(=O)Nc1noc2ccccc12 | -6.5%
71 | CCOC(=O)C1=C(C)OC(N)=C(C#N)C1c1c(C)cc(C)cc1C (centres unmarked) | 4.98%
72 | O=C(O)c1ccc(N2C(=O)c3ccccc3C2=O)cc1O | 1.96%
73 | CC1CCN(C(=O)c2cc(-c3ccccc3O)on2)CC1 | -4.43%
74 | COc1ccc(-c2nn(C)c3sc(C(=O)NCc4ccc5c(c4)OCO5)cc23)cc1OC | -2.29%
75 | CCCOc1ccc(C2CC(=O)NC3=C2C(=O)CCC3)cc1 (centres unmarked) | 0.559%
76 | Cc1ccccc1-c1nc2cc(NC(=O)c3cccc4ccccc34)ccc2o1 | -4.21%
77 | COc1ccc(CNS(=O)(=O)c2ccc(Cl)s2)cc1 | -1.96%
78 | CC(NC(=O)CN(C)S(=O)(=O)c1ccc(Br)s1)c1ccccc1 (centres unmarked) | 4.07%

Row | Structure (SMILES) | % Inhibition @ 10 uM
79 | COc1ccc(Oc2nc3c(c(=O)n(C)c(=O)n3C)n2C)cc1 | 3.86%
80 | Cc1nn(Cc2ccccc2Cl)c(C)c1NC(=O)c1cc(-c2ccc(O)cc2)on1 | 7.44%
81 | COc1cccc(COC(=O)c2ccc(-n3nnnc3Cc3cccc(OC)c3)cc2)c1 | 2.77%
82 | N#Cc1c(N)nc2c(c1-c1ccco1)CCCC2 | -3.58%
83 | CCOC(=O)C1=CN(Cc2ccc(F)cc2)C=C(C(=O)OCC)C1c1ccc(O)c(OCC)c1 | 0.219%
84 | O=C(NCc1ccccc1Cl)C1C2C=CC3(CN(Cc4ccccc4Cl)C(=O)C13)O2 (centres unmarked) | 4.06%
85 | CNC(=O)Cn1cc(S(=O)(=O)Cc2ccccc2Cl)c2ccccc21 | -6.36%
86 | CCCCOCC(O)Cn1c(C)nc2ccccc21 (centres unmarked) | -3.39%
87 | O=C1CC(c2ccccc2)CC(=O)C1=CNc1cccc2ccccc12 (centres unmarked) | 2.38%
88 | Clc1ccccc1C1CC(c2ccco2)n2ncnc2N1 (centres unmarked) | -2.67%
89 | CCN1CCCC1CNC(=O)C1CCCN(S(=O)(=O)c2cccc3nsnc23)C1 (centres unmarked) | -2.29%
90 | COCCn1c(CCC(=O)NCc2ccc(OC)cc2)nc2cccnc21 | 2.57%
91 | CC(C)CNC(=O)c1ccc2snnc2c1 | -0.0235%
92 | CNc1oc(/C=C/c2cccs2)nc1C#N | 0.00706%
93 | Cc1onc(-c2ccccc2Cl)c1C(=O)Nc1ccc(Cl)cc1 | -0.351%
94 | CCN1CCN(Cc2ccc(OC)c(C)c2C)CC1 | 6.33%
95 | O=C(NCc1ccco1)c1cnc2ccccn2c1=O | -1.66%
96 | COc1cc(/C=c2\sc3nc(-c4ccccc4C)nn3c2=O)cc(OC)c1OC | -3.21%
97 | Cc1nn(CCCC(=O)NCc2cccnc2)c(=O)c2cc3sccc3n12 | 3.2%
98 | Fc1ccc(-c2ccc(-c3nn4c(-c5ccccc5)nnc4s3)o2)cc1 | -1.69%
99 | NC(=O)COc1cc(=O)oc2ccc([N+](=O)[O-])cc12 | -3.58%
100 | COC(=O)C1=C(C)N=C(C)/C(=C(/O)OC)C1c1ccc(O)cc1 (centres unmarked) | -0.436%
101 | CCn1cc(C(=O)N2CC3CC(C2)c2cccc(=O)n2C3)c(=O)c2ccc(C)nc21 (centres unmarked) | -4.99%
